# Results taken from the BET-seq Pho4 binding data (Le et al. 2018).
# The other results are listed elsewhere or left out. These are noisy estimates, calculated here from bound and input reads.
# Target: T1, Pho4 (S. cerevisiae) (UniProt P07270)
# T1 sequence: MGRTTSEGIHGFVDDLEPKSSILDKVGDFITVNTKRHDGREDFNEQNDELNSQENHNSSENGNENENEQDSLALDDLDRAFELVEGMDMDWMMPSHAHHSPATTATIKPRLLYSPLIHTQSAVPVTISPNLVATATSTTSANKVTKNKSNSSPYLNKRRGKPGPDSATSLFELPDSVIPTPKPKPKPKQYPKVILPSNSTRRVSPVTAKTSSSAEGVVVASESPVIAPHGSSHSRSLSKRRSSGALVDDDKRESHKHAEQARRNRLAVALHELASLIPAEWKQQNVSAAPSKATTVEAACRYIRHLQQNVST
# Assay: relative binding free energy (BET-seq); higher = weaker binding
# Conditions: reference: library average
row,Sequence,relative binding free energy [kcal/mol]
1,GTTGGCACGTGTAGTT,0.08
2,TTTATCACGTGTGAGC,0.28
3,TAATTCACGTGTTGCA,0.08
4,GTTATCACGTGGCGTC,0.23
5,TTTGGCACGTGTGTGC,0.11
6,ATTAACACGTGGTTAG,0.01
7,TTTTTCACGTGCTTAT,0.19
8,ATGATCACGTGTGTGA,-0.04
9,TTGTTCACGTGGTGTA,0.28
10,ATGGGCACGTGTGTAT,-0.17
11,CGTCGCACGTGCGGTT,-0.04
12,AATATCACGTGCTAGT,0.17
13,GGCTGCACGTGTAGTA,-0.1
14,TTGACCACGTGAGGGG,0.16
15,GTTTGCACGTGAGATA,0.41
16,TGTAGCACGTGTGTCG,0.02
17,GTAAACACGTGTGGGT,0.03
18,TCGTGCACGTGGTTGG,-0.11
19,TTATCCACGTGTAATG,0.14
20,GGCTGCACGTGCGTGT,-0.12
21,GGCGTCACGTGTTTGG,0.18
22,AGGCACACGTGGTAAG,0.17
23,GGTTACACGTGCGTAG,0.09
24,TTGGTCACGTGGCTAA,0.06
25,TTGAACACGTGAGGTA,0.38
26,TATAGCACGTGAGGCT,0.03

row,Sequence,relative binding free energy [kcal/mol]
1,AGGTGCACGTGGGTAT,-0.08
2,GGGGCCACGTGTAAGA,0.1
3,TTTGTCACGTGGCGTC,-0.03
4,GTTGGCACGTGGACAA,0
5,TTGTGCACGTGATTTG,0.19
6,CATGACACGTGGGTAA,0.04
7,TGGATCACGTGGGCCG,-0.06
8,GCATGCACGTGATGGT,0
9,CTTCTCACGTGGTGTA,0.09
10,TAATGCACGTGTGTTA,-0.22
11,ATGTTCACGTGCGCGG,0.24
12,ATAGTCACGTGTCCGG,0.19
13,AAAATCACGTGAGGGG,0.23
14,TATAACACGTGTATAG,0.06
15,TAAATCACGTGAAGTG,0.18
16,GAATGCACGTGCTTTT,0.1
17,GCGGTCACGTGGTTTC,0.27
18,AGGGCCACGTGTTGGC,-0.1
19,GTATTCACGTGACTGG,0.25
20,CTTTGCACGTGGTGTC,-0.13
21,AGAAGCACGTGGTTCG,-0.05
22,GTTGTCACGTGGTGTA,0.05
23,TAAAACACGTGTGATG,0.05
24,TAATGCACGTGGTGGA,-0.15
25,CGTGTCACGTGTGTGA,0.05
26,AGTTCCACGTGTTGGT,0.08

row,Sequence,relative binding free energy [kcal/mol]
1,TTGTGCACGTGTTCTG,-0.05
2,AATGGCACGTGGGATT,-0.08
3,GTAGGCACGTGAAGGT,0.2
4,AATTTCACGTGGATTT,0.33
5,TTAATCACGTGGCGTA,0.13
6,TAGTTCACGTGAGGTC,0.51
7,ATTTGCACGTGCATGA,0.03
8,CTTGGCACGTGTCATT,-0.06
9,AGGGGCACGTGTGGCG,-0.07
10,TGGTACACGTGGCTGA,-0.11
11,GTGCGCACGTGTCGTT,0.05
12,GTGGACACGTGGCGGT,-0.1
13,TTTAGCACGTGGTAGA,-0.17
14,TTATTCACGTGCAAGT,0.24
15,GAAGTCACGTGTAATG,0.3
16,TGGGCCACGTGAAAGT,0.26
17,TTGAGCACGTGGTTTG,-0.08
18,CGGGACACGTGAATGG,0.24
19,CTGATCACGTGAGTGT,0.29
20,CAGGGCACGTGGGGTA,-0.31
21,AGAGGCACGTGAAAGG,0.01
22,AAGTTCACGTGTCGGC,0.31
23,TTGGGCACGTGGGGGC,-0.11
24,ATTGACACGTGCGAGT,0.04
25,GTGTACACGTGTTTTT,0.14
26,CTTTTCACGTGATGGT,0.41

row,Sequence,relative binding free energy [kcal/mol]
1,GGTTCCACGTGAGTTG,0.3
2,CGGGACACGTGAGTGT,0.23
3,GTTTGCACGTGGCAAT,-0.01
4,TTTGACACGTGGTTAT,-0.04
5,TTCTGCACGTGCTAGG,-0.06
6,TTTGACACGTGTCGCT,0.01
7,GCGGACACGTGGGGAA,-0.07
8,GTTGACACGTGTAGGC,0.2
9,TTTGACACGTGTAGAT,0.14
10,ATAGACACGTGTGGCT,0.02
11,TTAGGCACGTGTAATA,-0.04
12,AGTATCACGTGTTAAT,0.07
13,GGGGTCACGTGGAATG,0.13
14,TGAATCACGTGGCGTT,0.12
15,AGTTGCACGTGTGCTT,0.09
16,GGAGTCACGTGCTTTT,0.22
17,TATGTCACGTGGGCAA,-0.09
18,CTTTACACGTGAGGGG,0.3
19,GTGGACACGTGGATTT,0.11
20,TTCTTCACGTGTTGCT,0.19
21,AGCTTCACGTGAGGGG,0.4
22,CTAGTCACGTGTCGGT,0.09
23,GGTCACACGTGGGTTA,-0.15
24,GAGGGCACGTGTATGG,0.08
25,GTCTCCACGTGTGTGG,-0.04
26,TTTGGCACGTGTTAAT,0

row,Sequence,relative binding free energy [kcal/mol]
1,AGAAGCACGTGTAGGA,-0.06
2,TTGGGCACGTGAACTG,0.11
3,ATTATCACGTGCGGGT,0.14
4,GGGTTCACGTGGTGGT,0.35
5,GTTTTCACGTGATGTC,0.29
6,TTGCTCACGTGGGGCA,0.06
7,TGTTGCACGTGTCGGC,0.05
8,TCGTACACGTGTTGTT,0.05
9,GGCGGCACGTGCAGAG,-0.06
10,TGGAGCACGTGTAGGC,-0.04
11,CAAGACACGTGTTGGA,0.17
12,AAGTACACGTGCGTTG,0.13
13,TGGTCCACGTGGTGCG,-0.06
14,GGAGACACGTGAGGCG,0.12
15,GAGTCCACGTGGTGTT,0.07
16,ATCGTCACGTGCGGGG,0.05
17,TATTACACGTGATTTG,0.18
18,ATAAGCACGTGGAGCG,-0.08
19,GAGGGCACGTGTGAGG,0.1
20,AGGGTCACGTGATTTC,0.22
21,GTGTACACGTGGGTCG,-0.18
22,TTGAACACGTGGCATT,0.01
23,AGTAACACGTGCGTGT,-0.16
24,GTTAGCACGTGATGCA,0.12
25,TATAGCACGTGTGGTT,-0.04
26,TATATCACGTGTCGGT,0.17

row,Sequence,relative binding free energy [kcal/mol]
1,TTTGTCACGTGCATAA,-0.01
2,GTGGACACGTGTGGAT,-0.04
3,GATGGCACGTGAGGGG,0.1
4,CGGGGCACGTGTCGAG,-0.18
5,ATGCTCACGTGTTTAT,0.18
6,GAATTCACGTGTTTAG,0.35
7,TGGCTCACGTGGGGTT,0.13
8,TGTTTCACGTGTGAGT,0.36
9,GTGGCCACGTGAGGTA,0.22
10,ACGGCCACGTGGAGGG,-0.04
11,TCTATCACGTGGATGG,0.27
12,AGGTGCACGTGCTGTG,-0.03
13,CGGGGCACGTGCTTGG,-0.26
14,TGTCCCACGTGGGTTG,-0.16
15,ACTCTCACGTGGTGGG,0.07
16,AAGGGCACGTGTTGGG,-0.13
17,ATATTCACGTGAACGT,0.25
18,TTAGTCACGTGGAGGC,-0.05
19,GTGGGCACGTGGTCCT,-0.09
20,ATTGACACGTGATGGG,0.13
21,GAAGGCACGTGGAGGC,-0.02
22,TGGTGCACGTGGCTGT,-0.23
23,TCTTTCACGTGGGGTC,0.02
24,TCTGGCACGTGTATTT,0.1
25,TATTTCACGTGCGTTA,0.08
26,GACGTCACGTGGGGTT,0.06

row,Sequence,relative binding free energy [kcal/mol]
1,TTAGCCACGTGGCTGG,-0.11
2,ACGTTCACGTGTGTAT,0.15
3,TAGTTCACGTGCCTGT,0.29
4,AGGTCCACGTGGGGTG,-0.19
5,GTGATCACGTGAGTAT,0.21
6,TGATGCACGTGAGTGT,0.15
7,TGAATCACGTGGTGCA,0.02
8,CTTAACACGTGGGATG,-0.06
9,TAGGTCACGTGCGAGT,0.06
10,TAGGGCACGTGCCGTG,-0.12
11,CGTGACACGTGGTTCT,-0.05
12,TAGTTCACGTGTTGTC,0.34
13,GTGATCACGTGGGTTG,0.08
14,GGGGGCACGTGATGGT,0.11
15,GTTTTCACGTGATGGC,0.45
16,AAGGTCACGTGTGTCT,0.1
17,CTATGCACGTGAATGG,0.23
18,TTAGGCACGTGGACTG,-0.06
19,CGTTTCACGTGTGAAG,0.14
20,CTGGTCACGTGAGGGG,0.23
21,ATGTTCACGTGGAGGT,0.32
22,TGTGGCACGTGTTCGC,-0.05
23,TGTGTCACGTGGTTTC,0.15
24,TCTGTCACGTGGTTGG,0.03
25,AACGTCACGTGTGAGT,0.21
26,AGTTACACGTGGTGCA,-0.09

row,Sequence,relative binding free energy [kcal/mol]
1,ATTAACACGTGGGGCA,0.03
2,CGTGGCACGTGGTAAA,0.02
3,GCGGGCACGTGTCAGT,-0.04
4,GGCTGCACGTGGTGCG,-0.23
5,TTCGCCACGTGGAGTT,0.21
6,ACTTTCACGTGCTGGT,0.34
7,TGATGCACGTGTTCTT,-0.03
8,GGTGTCACGTGGACGT,0.12
9,GGGGTCACGTGCGGTT,0.16
10,GCTGGCACGTGTTGCG,-0.08
11,GATATCACGTGTGAGG,0.21
12,GTAGTCACGTGTTTTG,0.17
13,TAGTACACGTGGTGGA,-0.02
14,TGAAGCACGTGCGTTT,-0.09
15,GGATACACGTGTAAGG,0.12
16,GATTTCACGTGGGTTT,0.36
17,GGGTGCACGTGTAGGT,0.09
18,TGGTACACGTGACTTT,0.28
19,AGGAACACGTGGGAGG,-0.11
20,GTTGTCACGTGAATAT,0.37
21,TTAGTCACGTGGGTTT,0.07
22,AGGCGCACGTGCTGGA,-0.11
23,ATGCGCACGTGAAGGT,0.04
24,TGTGTCACGTGATCTA,0.12
25,TTGGACACGTGTTGGC,0.21
26,TATGGCACGTGGTTCG,-0.13

row,Sequence,relative binding free energy [kcal/mol]
1,AAGAGCACGTGTAATG,-0.01
2,GATTTCACGTGGCTTT,0.12
3,TGGGGCACGTGAAGAT,0.19
4,GAGTACACGTGATTGG,0.06
5,CTGGTCACGTGGGGTG,-0.05
6,GGTTACACGTGAGGGT,0.4
7,GTTATCACGTGTCGCG,0.32
8,GTCGGCACGTGGTGGG,-0.09
9,CGATGCACGTGTAGGG,0
10,TTAAGCACGTGCGTAG,-0.03
11,TTTGTCACGTGTTACG,0.05
12,TGGTGCACGTGGGGGC,-0.14
13,TGTTGCACGTGAGGAC,0.14
14,ACTTGCACGTGTGGAG,0.04
15,GTGTGCACGTGGGAGG,-0.08
16,TAAATCACGTGAGTTA,0.31
17,TGGGGCACGTGGGTTC,-0.23
18,CAGTGCACGTGGTGTC,-0.12
19,ATTGTCACGTGATTCT,0.05
20,CTTATCACGTGTGGGC,0.14
21,TGGTGCACGTGGAACG,0.01
22,TTAGCCACGTGTTGAT,-0.13
